This is one part of the list.

This assay has as its system T1, C. trachomatis L2/434/Bu expressing GFP (CTL2-GFP).
T1 construct: L2/434/Bu GFP intracellular growth in HeLa cells
More on the design: species or system HeLa; C. trachomatis total inclusion area by high-content imaging, normalised to DMSO. The conditions noted are these: total inclusion area; 28.5 h, 10 µM; inhibitor. In short, it runs like this:
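Post-fluorescence-read fixation, DNA staining with Hoechst and high-content imaging; GFP inclusion area and number per well, and nuclei counts, used as proxies for bacterial growth and host viability.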
In the case of `CCN(CC)C(=O)CCNC(=O)c1ccc2c(c1)COC(C1CCN(C(=O)OC(C)(C)C)CC1)O2` (centres unmarked) [CBK173273], the “% of control remaining” value worked out at 78.1269.
Regarding `Cc1nc(-c2ccccc2)sc1C(=O)C1=C(O)C(=O)N(CCN(C)C)C1c1ccc(Cl)cc1` (centres unmarked) [CBK266595], the “% of control remaining” value is recorded as 115.664.
In the case of `Cn1cnnc1SCC(=O)c1cccc(C(F)(F)F)c1` [CBK067718], the “% of control remaining” value turned out to be 94.8337.
On to `O=C(NCCO)c1cccc(-c2cncc(N3CCCCC3CCO)n2)c1` (centres unmarked) [CBK037759], for which the “% of control remaining” value turned out to be 120.487.
For the compound `Cc1cc(C(C)NC(=O)C2CCCN(S(C)(=O)=O)C2)c(C)s1` (centres unmarked) [CBK305464], the “% of control remaining” value is listed as 51.9697.
Then `Cc1nc(N2CCCCC2)ncc1C(=O)NCCc1cc[nH]n1` [CBK307035], with 95.7607.
The result for `CC1CCc2c(sc(NC(=O)COc3ccccc3)c2C(=O)Nc2ccccc2Cl)C1` (centres unmarked) [CBK263044] reads 88.3275.
As for `Clc1ccc(COc2cccc(CNCc3ccccn3)c2)c(Cl)c1` [CBK270060C], the “% of control remaining” value stood at 67.2948.
The result for `COc1ccccc1NC(=O)c1cn(Cc2ccc(N)cc2)cn1` [CBK288045] reads 87.9005; that for `Cc1ccc(Cl)cc1NC(=O)c1cc(NC(=O)C2CC=CCC2C(=O)O)ccc1N1CCOCC1` (centres unmarked) [CBK268479], 83.0151.
With `O=C(O)c1cc(Sc2nnnn2-c2ccccc2)c2ccccc2c1O` [CBK006925], the “% of control remaining” value came to 95.6343.
Regarding `O=C1c2ccccc2CN1CCNS(=O)(=O)c1ccc2oc3ccccc3c2c1` [CBK264918], the “% of control remaining” value amounted to 88.022.
Then `CC1Oc2ccc(S(=O)(=O)Nc3ccc(CCC(=O)O)cc3)cc2NC1=O` (centres unmarked) [CBK299769], with 125.793.
Regarding `Cc1c(NC(=S)NC(=O)Cc2ccccc2)cccc1-c1nc2ncccc2o1` [CBK264345], the “% of control remaining” value was determined as 66.4189.
As for `O=C1Nc2ccc(Br)cc2C(=O)N2CCN(C(=O)c3ccccc3)C[C@H]12` [CBK289589], the “% of control remaining” value was determined as 80.4464.
Regarding `Cc1noc(C)c1C(=O)N1CCN(Cc2ccco2)C[C@@H]1C(C)C` [CBK284248], the “% of control remaining” value is on record as 99.3323.
The result for `CCOc1ccc(S(=O)(=O)N2CCCN(Cc3ccc(C#N)cc3)CC2)c2cccnc12` [CBK062759] reads 56.7108; that for `CCN1CCN(C(=O)c2ccc(N(C)C)cc2)CC1` [CBK200252], 115.561; that for `O=C(NC1CCN(CC(F)(F)F)C1=O)c1ccnc(C2CC2)n1` (centres unmarked) [CBK306268], 66.0209.
As for `Cc1ccc(Cn2nc(NC(=O)c3ccccc3)c3ccccc32)cc1` [CBK048213], the “% of control remaining” value is given as 91.9257.
On to `CCc1nccn1CCC(=O)NC(c1ccc(C)cc1)c1cccnc1` (centres unmarked) [CBK282032], for which the “% of control remaining” value was found to be 54.9393.
Turning to `O=C(COc1cc(C(=O)O)nc2ccccc12)NCc1ccc(Cl)cc1` [CBK287247], the “% of control remaining” value turned out to be 143.335.
Regarding `CN(C)S(=O)(=O)c1ccc(C(=O)C2=C(O)C(=O)N(CCN3CCOCC3)C2c2ccco2)cc1` (centres unmarked) [CBK264521], the “% of control remaining” value came out at 118.613.
Turning to `Cc1nn2c(COc3ccc(NC(=O)C4CCCCC4)cc3)nnc2c2ccccc12` [CBK268528], the “% of control remaining” value came to 101.932.
For the compound `Cc1cc(NC(=O)CN2CCC(CNc3ncccc3C#N)C2)on1` (centres unmarked) [CBK306127], the “% of control remaining” value was determined as 85.0905.
As for `NC(=O)CN1CCN(c2nccnc2OCc2ccc(Cl)c(Cl)c2)CC1` [CBK083079T], the “% of control remaining” value is 56.9709.
The result for `Cc1csc(NC(=O)CN2CCC(c3ccc(F)cc3)CC2)n1` [CBK283567] reads 84.7374; that for `Cc1ccc(CNCCn2nnc(-c3ccc(CN4CCC(C)CC4)cc3)n2)cc1` [CBK154882T], 91.1011.
As for `CC(C)(C)c1ccc(OCC(=O)Nn2cnnc2)cc1` [CBK027576], the “% of control remaining” value is 111.865.
Regarding `Cc1ccccc1C(=O)NCC(=O)Nc1cc2ccccc2c(Br)n1` [CBK063298], the “% of control remaining” value was determined as 100.931.
With `CCS(=O)(=O)N1C[C@H]2CC[C@](O)(c3ccc(C)cc3)[C@H]2C1` [CBK285296], the “% of control remaining” value amounted to 85.713.
The result for `c1ccc(-c2nccnc2OCCc2cccs2)cc1` [CBK106673] reads 112.261; that for `COCCCOc1cc(NC(C)C)ncn1` [CBK115885], 74.8504.
`CNc1cc(N2CCN(S(=O)(=O)c3ccc(C)cc3)CC2)ccc1[N+](=O)[O-]` [CBK266005]: the “% of control remaining” value is reported as 81.2843.
Take `CCCc1c(C(=O)NC2CC2)cnn1-c1ccc(Cl)cc1` [CBK006334]: the “% of control remaining” value came out at 123.378.
The result for `O=C(O)C1CCN(Cc2cnnn2-c2ccccc2F)CC1` [CBK287197] reads 96.489; that for `COc1ccccc1CN(CCCn1ccnc1)Cc1ccoc1` [CBK283123], 98.6491.
With `Cc1cccc(C(C)CNC(=O)N2CCC(Cc3cnn(C)c3)C2)c1` (centres unmarked) [CBK305301], the “% of control remaining” value worked out at 79.8647.
Consider `CCn1cc(-c2cncn2CCCn2nc(C)cc2C)cn1` [CBK281770], for which the “% of control remaining” value amounted to 88.2342.
Regarding `CCC(C)NC1=NC(=O)C(CC(=O)N(C)c2ccccc2)S1` (centres unmarked) [CBK059110T], the “% of control remaining” value came to 90.1648.
As to `CCN(CC)C(=O)c1[nH]c2ccccc2c1NS(=O)(=O)c1c(C)noc1C` [CBK050117], the “% of control remaining” value came to 102.028.
Then `Cc1cc(C)n(-c2nc(NC(C)(C)C)nc(N3CCOCC3)n2)n1` [CBK269810], with 92.0018; and `COc1ccc2[nH]c([C@H]3CCN(S(C)(=O)=O)C3)nc2c1` [CBK289377], with 114.737.
Then `CC(C)(C)c1cc(NC(=O)CN2CCN(c3cccc(Cl)c3)CC2)on1` [CBK304525], with 48.6953; and `O=C(N[C@H]1C[C@H]2C(=O)Nc3ccccc3C(=O)N2C1)c1cccnc1` [CBK289356], with 82.6105.
Regarding `COc1ccc(CSCC(N)C(=O)O)cc1Br` (centres unmarked) [CBK264026], the “% of control remaining” value is 98.1737.
The result for `CC(C)c1nc(NCc2nnc3n2CCC3)nc(N(C)C)n1` [CBK305117] reads 29.7657.
In the case of `CCCOc1ccc(S(=O)(=O)NCc2ccncc2)c2ccccc12` [CBK268780], the “% of control remaining” value was found to be 74.6326.
As for `O=C(NCCn1nc2c(cc1=O)CCCCC2)c1ccc(F)cc1` [CBK283279], the “% of control remaining” value is reported as 102.735.
Regarding `CCCOc1ccc(C(CC(=O)O)NS(=O)(=O)c2ccc(F)cc2)cc1` (centres unmarked) [CBK287139], the “% of control remaining” value stood at 108.603.
The result for `Cn1cc(CNC(=O)Nc2cc(C(=O)N3CCOCC3)ccc2Cl)cn1` [CBK307080] reads 69.1389; that for `Cc1cc(COc2nccnc2N2CCN(CCCC#N)CC2)no1` [CBK084198], 87.488; that for `COc1ccccc1NC(=S)NCCc1ccc(S(N)(=O)=O)cc1` [CBK266201], 108.215.
Then `CC(C)n1nccc1NC(=O)CCn1ccnc1-c1ccccc1` [CBK281536], with 121.052; and `O=C(NCc1cccnc1)c1cc(S(=O)(=O)N2CCCC2)c(Cl)cc1Cl` [CBK264455], with 74.6409.
On to `O=C(O)c1ccc(CSc2nc3ccccc3[nH]2)cc1` [CBK286892], for which the “% of control remaining” value came to 64.1159.
In the case of `CCSc1nnc(-c2cccnc2)n1Cc1ccccc1` [CBK076664], the “% of control remaining” value came to 108.228.
In the case of `Cn1cc(C2CCCCCN2S(=O)(=O)c2ccc(F)cc2)cn1` (centres unmarked) [CBK284739], the “% of control remaining” value came out at 85.4006.
`CC(C)NC(=O)/C(=C/c1c[nH]c2ncccc12)c1ccccc1` [CBK115357]: the “% of control remaining” value is 97.1167.
As for `Cc1nc(NS(=O)(=O)c2ccc(Oc3ccccc3)cc2)sc1C(=O)O` [CBK045566], the “% of control remaining” value stood at 98.1961.
As for `COc1cc(CN(C)Cc2cccc3ccccc23)c([N+](=O)[O-])cc1OC` [CBK261850], the “% of control remaining” value worked out at 89.1729.
The result for `Cc1ccc2c(c1)OC1(CCN(C(=O)c3cc4c(C)nn(C)c4s3)CC1)CC2=O` [CBK166037] reads 105.177; that for `COc1ncccc1CNC(=O)Cn1ccc(=O)[nH]c1=O` [CBK305596], 95.9242.
In the case of `CC(C)C(=O)N1CCC(c2nc3ccc(F)cc3cc2N)CC1` [CBK284656], the “% of control remaining” value was 106.359.
`O=S(=O)(CCSc1ccc(Cl)cc1)Oc1ccccc1` [CBK261021]: the “% of control remaining” value is reported as 88.8272.
Then `O=C1NC2(CCc3ccccc31)CCN(C/C=C/c1cccnc1)C2` (centres unmarked) [CBK284622], with 94.8948; and `O=C(O)CC(Cc1ccc(Br)cc1)C(=O)Nc1ccccc1` (centres unmarked) [CBK262714], with 81.8089; and `COC(=O)C(=O)N1CC[C@H]2NC(=O)N(c3ccc(C(C)C)cc3)C(=O)[C@H]21` [CBK289287], with 69.9202.
The result for `Cc1nc(C2CCCN(C(=O)CCn3cccn3)C2)c2sccn12` (centres unmarked) [CBK285234] reads 90.2453; that for `Cc1cc(C)cc(OCC(=O)Nc2ccc3[nH]c(=O)[nH]c3c2)c1` [CBK269676], 109.424.
The result for `CCN(CC)CCNC(=O)c1cccc(Nc2cncc(-c3ccc(O)cc3)n2)c1` [CBK122671] reads 93.7947; that for `O=C(Nc1nc(-c2cccnc2)cs1)c1cccc(N2C(=O)CCC2=O)c1` [CBK287564], 108.611.
Take `CCn1ncc2c1CCCC2NC1CCN(CC(F)(F)F)C1=O` (centres unmarked) [CBK305206]: the “% of control remaining” value came to 36.9336.
On to `FC(F)(F)c1cccc(OCCOc2ccccc2)n1` [CBK115835], for which the “% of control remaining” value came out at 102.374.
With `CC(=O)Nc1cccc(C(=O)N2CCC(OCc3ccccn3)CC2)c1` [CBK307009], the “% of control remaining” value amounted to 70.4708.
In the case of `COc1cccc2cc(C(=O)N3CCN(C4CCN(C)CC4)CC3)oc12` [CBK149086], the “% of control remaining” value is listed as 103.543.
`Cc1ccc(C)c(-c2csc(NS(=O)(=O)c3cccc(C(=O)O)c3)n2)c1` [CBK296696]: the “% of control remaining” value was 67.6528.
The result for `COCCc1noc(CC2CCN(c3ccc(C#N)nc3)CC2)n1` [CBK304094] reads 11.444; that for `O=c1n(-c2cccc(C(F)(F)F)c2)ccn1S(=O)(=O)c1ccc(N2CCOCC2)nc1` [CBK106590], 80.976; that for `CC(Oc1cccc(Cl)c1)C(=O)Nc1ncccn1` (centres unmarked) [CBK265450], 98.1759.

These data come from paper PMC12040169 (PLOS Biology, 2025).
